The other results are listed elsewhere or left out. Sequences were assembled here from the parent chain. Inactive controls read about 0.05.
B1: TEV protease; numbered along this chain (parent)
chain: MGESLFKGPRDYNPISSSICHLTNESDGHTTSLYGIGFGPFIITNKHLFRRNNGTLVVQSLHGVFKVKDTTTLQQHLVDGRDMIIIRMPKDFPPFPQKLKFREPQREERICLVTTNFQTKSMSSMVSDTSCTFPSGDGIFWKHWIQTKDGQCGSPLVSTRDGFIVGIHSASNFTNTNNYFTSVPKNFMELLTNQEAQQWVSGWRLNADSVLWGGHKVFMVKPEEPFQPVKEATQL

Variants of: B1
Experiment: raw area under fraction-flipped curve 0-4 h after induction (AUC4h, not background-subtracted), DNA-recorder readout of cleavage of the substrate (dimensionless); higher = more cleavage of the substrate by the protease variant
Settings: temperature: 34 °C; time window: 0-4 h after rhamnose induction
Description: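 In vivo DNA recorder in E. coli TOP10(DE3) ΔrhaA at 34 °C. Each TEVp single-site mutant (parent TEVp 0) is paired with a single-site variant of the 7-mer TEVs (canonical ENLYFQ|S). The substrate sits between flexible linkers in a Bxb1-sfGFP-TEVs-SsrA fusion, so cleavage stabilises Bxb1 and speeds flipping of a recombination array, read by NGS. The value is the raw area under the fraction-flipped curve over 0-4 h after rhamnose induction (AUC4h), with ≥20 reads per time point. It is not background-subtracted; inactive controls average about 0.047.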
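Note: Bxb1 expression induced with 0.2% (w/v) L-rhamnose at OD600 near 0.5, cultures sampled hourly, flipped fraction per protease–substrate barcode pair counted by paired-end Illumina sequencing.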

| Variant | area with substrate ENAYFQS | area with substrate ENCYFQS | area with substrate ENFYFQS | area with substrate ENGYFQS | area with substrate ENHYFQS | area with substrate ENQYFQS | area with substrate ENRYFQS | area with substrate ENSYFQS | area with substrate ENTYFQS | area with substrate ENWYFQS | area with substrate ENDYFQS | area with substrate ENEYFQS | area with substrate ENKYFQS | area with substrate ENNYFQS | area with substrate ENPYFQS | area with substrate ENIYFQS | area with substrate ENMYFQS | area with substrate ENVYFQS | area with substrate ENYYFQS |
| --- | --- | --- | --- | --- | --- | --- | --- | --- | --- | --- | --- | --- | --- | --- | --- | --- | --- | --- | --- |
| MGESLFKGPRDYNPISSSICHLTNESDGHTTSLYGIGFGPFIITNKHLFRRNNGTLVVQSLHGVFKVKDTTTLQQHLVDGRDMIIIRMPKDFPPFPQKLKFREPQREERICLVTTNFQTKSMSSMVSDTSCTFPSGDGIFWKHWIQTKDGQYGSPLVSTRDGFIVGIHSASNFTNTNNYFTSVPKNFMELLTNQEAQQWVSGWRLNADSVLWGGHKVFMVKPEEPFQPVKEATQL [C152Y] | 0.0598 | 0.0079 | 0.0473 | 0.0444 | 0.0689 | 0.0731 | 0.0816 | 0.0429 | 0.0681 | 0.0612 |  |  |  |  |  |  |  |  |  |
| MGESLFKGPRDYNPISSSICHLTNESDGHTTSLYGIGFGPFIITNKHLFRRNNGTLVVQSLHGVFKVKDTTTLQQHLVDGRDMIIIRMPKDFPPFPQKLKFREPQREERICLVTTNFQTKSMSSMVSDTSCTFPSGDGIFWKHWIQTKDGQCRSPLVSTRDGFIVGIHSASNFTNTNNYFTSVPKNFMELLTNQEAQQWVSGWRLNADSVLWGGHKVFMVKPEEPFQPVKEATQL [G153R] | 0.0513 |  | 0.0551 |  |  |  |  |  |  |  |  |  |  |  |  |  |  |  |  |
| MGESLFKGPRDYNPISSSICHLTNESDGHTTSLYGIGFGPFIITNKHLFRRNNGTLVVQSLHGVFKVKDTTTLQQHLVDGRDMIIIRMPKDFPPFPQKLKFREPQREERICLVTTNFQTKSMSSMVSDTSCTFPSGDGIFWKHWIQTKDGQCVSPLVSTRDGFIVGIHSASNFTNTNNYFTSVPKNFMELLTNQEAQQWVSGWRLNADSVLWGGHKVFMVKPEEPFQPVKEATQL [G153V] | 0.0508 | 0.053 |  | 0.0567 | 0.0491 | 0.0449 | 0.0593 |  | 0.0444 |  | 0.053 | 0.0367 | 0.0501 | 0.0539 | 0.0447 |  |  |  |  |
| MGESLFKGPRDYNPISSSICHLTNESDGHTTSLYGIGFGPFIITNKHLFRRNNGTLVVQSLHGVFKVKDTTTLQQHLVDGRDMIIIRMPKDFPPFPQKLKFREPQREERICLVTTNFQTKSMSSMVSDTSCTFPSGDGIFWKHWIQTKDGQCGSQLVSTRDGFIVGIHSASNFTNTNNYFTSVPKNFMELLTNQEAQQWVSGWRLNADSVLWGGHKVFMVKPEEPFQPVKEATQL [P155Q] | 0.0464 | 0.0628 | 0.0422 | 0.0459 | 0.0555 | 0.0518 | 0.0553 | 0.051 | 0.0507 | 0.054 | 0.0627 | 0.0589 | 0.0552 | 0.0544 | 0.0412 | 0.0556 | 0.0728 | 0.0485 | 0.0342 |
| MGESLFKGPRDYNPISSSICHLTNESDGHTTSLYGIGFGPFIITNKHLFRRNNGTLVVQSLHGVFKVKDTTTLQQHLVDGRDMIIIRMPKDFPPFPQKLKFREPQREERICLVTTNFQTKSMSSMVSDTSCTFPSGDGIFWKHWIQTKDGQCGSPNVSTRDGFIVGIHSASNFTNTNNYFTSVPKNFMELLTNQEAQQWVSGWRLNADSVLWGGHKVFMVKPEEPFQPVKEATQL [L156N] | 0.0479 | 0.048 | 0.0522 | 0.0543 | 0.0408 | 0.0538 |  | 0.0612 | 0.0527 | 0.0549 | 0.0669 | 0.0517 | 0.0544 | 0.0362 | 0.0435 | 0.0556 | 0.0468 | 0.0477 | 0.0512 |
| MGESLFKGPRDYNPISSSICHLTNESDGHTTSLYGIGFGPFIITNKHLFRRNNGTLVVQSLHGVFKVKDTTTLQQHLVDGRDMIIIRMPKDFPPFPQKLKFREPQREERICLVTTNFQTKSMSSMVSDTSCTFPSGDGIFWKHWIQTKDGQCGSPLGSTRDGFIVGIHSASNFTNTNNYFTSVPKNFMELLTNQEAQQWVSGWRLNADSVLWGGHKVFMVKPEEPFQPVKEATQL [V157G] | 0.0535 | 0.0563 | 0.0625 | 0.0395 | 0.0621 | 0.0553 |  | 0.0429 |  | 0.0207 | 0.0578 | 0.0685 | 0.0596 |  | 0.0457 |  |  |  |  |
| MGESLFKGPRDYNPISSSICHLTNESDGHTTSLYGIGFGPFIITNKHLFRRNNGTLVVQSLHGVFKVKDTTTLQQHLVDGRDMIIIRMPKDFPPFPQKLKFREPQREERICLVTTNFQTKSMSSMVSDTSCTFPSGDGIFWKHWIQTKDGQCGSPLVSCRDGFIVGIHSASNFTNTNNYFTSVPKNFMELLTNQEAQQWVSGWRLNADSVLWGGHKVFMVKPEEPFQPVKEATQL [T159C] | 0.0657 |  |  |  | 0.0451 | 0.0698 |  | 0.0734 |  | 0.0596 | 0.0599 |  |  |  |  |  |  |  |  |
| MGESLFKGPRDYNPISSSICHLTNESDGHTTSLYGIGFGPFIITNKHLFRRNNGTLVVQSLHGVFKVKDTTTLQQHLVDGRDMIIIRMPKDFPPFPQKLKFREPQREERICLVTTNFQTKSMSSMVSDTSCTFPSGDGIFWKHWIQTKDGQCGSPLVSTCDGFIVGIHSASNFTNTNNYFTSVPKNFMELLTNQEAQQWVSGWRLNADSVLWGGHKVFMVKPEEPFQPVKEATQL [R160C] | 0.0881 | 0.0839 | 0.0673 | 0.0821 | 0.0613 | 0.0502 |  | 0.0611 |  | 0.0457 | 0.0607 | 0.0563 | 0.0805 |  | 0.044 |  |  | 0.0734 | 0.0503 |
| MGESLFKGPRDYNPISSSICHLTNESDGHTTSLYGIGFGPFIITNKHLFRRNNGTLVVQSLHGVFKVKDTTTLQQHLVDGRDMIIIRMPKDFPPFPQKLKFREPQREERICLVTTNFQTKSMSSMVSDTSCTFPSGDGIFWKHWIQTKDGQCGSPLVSTEDGFIVGIHSASNFTNTNNYFTSVPKNFMELLTNQEAQQWVSGWRLNADSVLWGGHKVFMVKPEEPFQPVKEATQL [R160E] | 0.068 | 0.0838 | 0.0668 | 0.0543 | 0.0565 | 0.0504 |  | 0.0602 |  | 0.0573 | 0.0634 | 0.0612 | 0.0581 |  | 0.0606 | 0.0911 | 0.0705 | 0.08 |  |
| MGESLFKGPRDYNPISSSICHLTNESDGHTTSLYGIGFGPFIITNKHLFRRNNGTLVVQSLHGVFKVKDTTTLQQHLVDGRDMIIIRMPKDFPPFPQKLKFREPQREERICLVTTNFQTKSMSSMVSDTSCTFPSGDGIFWKHWIQTKDGQCGSPLVSTFDGFIVGIHSASNFTNTNNYFTSVPKNFMELLTNQEAQQWVSGWRLNADSVLWGGHKVFMVKPEEPFQPVKEATQL [R160F] | 0.0727 | 0.0432 | 0.0748 | 0.0798 | 0.0565 | 0.0577 | 0.0552 | 0.0539 | 0.0644 | 0.0579 | 0.0668 | 0.0726 | 0.0623 | 0.0629 | 0.0565 | 0.1 |  |  |  |

Reference: the supplement of paper PMC12217912
